The supplement of paper PMC5499739
In all, about 16,000 sequences were measured (“Z-score”: median about -0.37, highest 2% from about 3.2 on). The list shows a part of the results.

test system: RBM10 RRM1-ZnF (GST-tagged construct); assay: RNAcompete 7-mer binding Z-score; higher = stronger binding preference
Outline: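 A designed pool of 241 399 RNAs, each up to 41 nt and transcribed from microarray-derived DNA templates, was used at 1.5 nmol with 20 pmol of GST-tagged RBM10 constructs. The mixture, in 1 ml Hepes pH 7.8 buffer with KCl, NaCl, glycerol, DTT, BSA and glutathione Sepharose beads, was held 30 min at 4°C and then washed four times for 2 min at 4°C. Bound RNA was read out by microarray hybridisation, and enrichment of each heptamer motif was scored as a one-sided Z-score over the probes carrying it.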

Sequence | RNAcompete 7-mer binding Z-score
ACGAUCG | -0.249
CCCGCCC | -0.233
UUAUUCG | -0.73
GUGUCUG | 0.173
GCAGACC | -0.321
GGCCGCA | -0.509
GAAGGAG | 4.72
UGCACGA | -0.0414
ACAUGAC | -0.571
ACCGAGC | -0.448
CUUGCGG | -0.0382
AUGUCCC | -0.711
CACUCGG | -0.0187
CGGGGCC | 0.621
AAUACUG | -0.246
ACAUUAG | -0.285
AUUAUGC | -0.587
GAGAUAC | 0.153
ACGCUAC | -0.613
GCUAAGU | -0.298
CUCCGCA | -0.568
GUCAUAG | -0.0674
CUACGAC | -0.785

Sequence | RNAcompete 7-mer binding Z-score
UAGCGAG | 0.826
GAGGUAA | 2.23
AAGCAUC | -0.376
UGGCGAA | 0.761
UGAAACG | -0.119
AAUUUGA | -0.399
AGGUCGA | 0.29
GCAAAAG | 0.397
UAGCCGC | -0.487
CCAGUAC | -0.584
CACGACG | -0.0577
ACUCAGC | -0.639
AAAGGUC | 0.852
AGGAGAU | 1.41
CAGCAAC | -0.539
CCCAUUC | -0.844
AUCGGUG | 0.894
CCCGAUG | -0.383
GAGGUCU | 0.0203
GAGUCGC | -0.155
UCAAGAU | -0.438
AGACGUC | -0.724
ACGUGCC | -0.542

Sequence | RNAcompete 7-mer binding Z-score
UACCCCG | -0.49
GGUAUAC | 0.599
UGAUCUA | -0.672
AUAAUAA | -0.454
UAAGCGG | 0.833
UUUUUAA | -0.652
UGCGGGU | 2.92
UUAAAGA | -0.168
GGUCAAA | -0.145
UACCGCA | -0.649
AUCAUCU | -1
CGGAACG | 0.576
CAUGUCA | -0.5
GUGCCAC | -0.0317
ACGUACC | -0.578
AUCUGGU | -0.113
GUACCAA | -0.353
AGGAAGG | 4.31
CUUUAGC | -0.941
CGGUGUU | 0.0528
ACCGACC | -0.824
UGCUUUA | -0.789
UGAUGGU | 1.87

Sequence | RNAcompete 7-mer binding Z-score
AUAACUU | -0.649
CCUUAGG | -0.422
AUGCGCU | -0.532
AUCCGUA | -0.733
GCAUUCC | -0.668
GGAUGCG | 2.58
GUUUUUC | -0.62
CGGAAGU | 0.79
CAACGCC | -0.691
UUUAUCC | -0.815
ACGUGAG | 0.621
CUACACG | -0.571
CUAAGGC | -0.266
GAACUCC | -0.678
GUGGGGC | 3.52
CUUCUCC | -0.789
CGCAUUC | -0.639
AAAGGCA | 0.94
GGGCACA | 1.24
AAUCCAG | -0.435
AGGGCAC | 0.933
CCGCUCC | -0.474
CUGUCAU | -0.6

Sequence | RNAcompete 7-mer binding Z-score
UUGUGAG | 0.342
GUGACGC | 0.439
GUCGAGU | 0.0365
CAUACUG | -0.503
GUGUCCA | -0.457
CCCACCU | -0.386
CCAGGAC | 0.0495
GGCUACU | -0.275
UAUUCAA | -0.756
CCGACAA | -0.737
UUCUAGC | -0.779
CAUGACG | -0.409
GGGCUAA | 1.34
GACGAGG | 2.45
CCAUCAA | -0.785
GACGAGA | 0.644
ACCCAGU | -0.655
GGCUGAU | 0.443
UAUGCGU | -0.246
GCCAUUG | -0.578
CUCGGGG | 1.35
GUCACUA | -0.243
AGACCGC | -1.03

Sequence | RNAcompete 7-mer binding Z-score
GAAAUAG | 0.794
AAAUGAA | -0.139
ACCCGCG | -0.259
GUGACCA | -0.103
AGUACCG | -0.262
AUUCUCC | -0.681
CCAGAAC | -0.672
GUAGUCA | 0.157
GAUUGUG | 0.81
ACGACUU | -0.668
CAGUUUC | -0.795
UUUCGGG | 0.667
ACACUAU | -0.5
ACGGCAC | 0.137
ACUACUU | -0.659
CUCAGAC | -0.662
AGCGGUU | 1.11
AGCAGGA | 2.3
UGGGGCC | 0.868
AGACAUC | -0.633
UUACCAA | -0.766
GAAGGAC | 2.33
UGAUAGC | 0.0138

Sequence | RNAcompete 7-mer binding Z-score
AUAUAAG | 0.147
GGUCUAU | -0.298
UGAAAUG | 0.836
GAUGUGC | 0.56
CGCCUAU | -0.727
AACACUG | -0.253
GUCUGCU | -0.578
AUCCCUU | -0.772
ACCGCGC | -0.425
GAUUGAA | 0.205
CAUCCAU | -0.821
UCAAGAA | -0.5
UGGAGGA | 2.87
AUCUAGU | -0.613
UAUACGC | -0.805
CGCUCAC | -0.617
CCGUCAG | -0.607
GAUCAAG | 0.0203
AGGCGAC | 0.189
GCGCUAU | -0.467
UAUUCGG | -0.155
GGAUCUG | 0.244
GGACUAC | 0.163

Sequence | RNAcompete 7-mer binding Z-score
GAAUGGC | 1.27
GUGGCGU | 1.19
CAUAUCC | -0.789
CUCGUCC | -0.639
AUGAAAU | -0.292
GCAAUGA | 0.0268
AUCGAAG | 0.183
GAUUCGC | -0.5
GGACAGU | 0.842
GCGGAUA | 2.18
GUGCAGC | 0.436
UUCACGC | -0.74
GUAUAUA | -0.0414
CAACCUG | -0.652
AGUAAUU | -0.467
UCGUAGC | -0.48
CAGUACC | -0.633
GCUUAGC | -0.483
GAUGCCC | -0.418
CCGAACC | -0.779
GCGGGGG | 3.94
GAUUCUU | -0.678
